Laboratory results published in paper PMC6919601, “Identification of Plasmodium dipeptidyl aminopeptidase allosteric inhibitors by high throughput screening” (PLoS ONE, 2019).
The whole screen tested about 110,000 compounds, of which about 230 (0.21%) showed an effect of 50% or more. This is one part of the list.

Target: DPAP1 (Plasmodium falciparum, UniProt Q8IIJ9)
Test: primary screen, percent inhibition; read by cleavage of a fluorogenic dipeptide substrate; higher = more effect of the substance
Parameters: species or system P. falciparum D10 trophozoite lysates; single well
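Note: 30 min substrate incubation versus DMSO and 10 µM JCP410 controls.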

DPAP1, sequence (Q8IIJ9 whole entry, looked up): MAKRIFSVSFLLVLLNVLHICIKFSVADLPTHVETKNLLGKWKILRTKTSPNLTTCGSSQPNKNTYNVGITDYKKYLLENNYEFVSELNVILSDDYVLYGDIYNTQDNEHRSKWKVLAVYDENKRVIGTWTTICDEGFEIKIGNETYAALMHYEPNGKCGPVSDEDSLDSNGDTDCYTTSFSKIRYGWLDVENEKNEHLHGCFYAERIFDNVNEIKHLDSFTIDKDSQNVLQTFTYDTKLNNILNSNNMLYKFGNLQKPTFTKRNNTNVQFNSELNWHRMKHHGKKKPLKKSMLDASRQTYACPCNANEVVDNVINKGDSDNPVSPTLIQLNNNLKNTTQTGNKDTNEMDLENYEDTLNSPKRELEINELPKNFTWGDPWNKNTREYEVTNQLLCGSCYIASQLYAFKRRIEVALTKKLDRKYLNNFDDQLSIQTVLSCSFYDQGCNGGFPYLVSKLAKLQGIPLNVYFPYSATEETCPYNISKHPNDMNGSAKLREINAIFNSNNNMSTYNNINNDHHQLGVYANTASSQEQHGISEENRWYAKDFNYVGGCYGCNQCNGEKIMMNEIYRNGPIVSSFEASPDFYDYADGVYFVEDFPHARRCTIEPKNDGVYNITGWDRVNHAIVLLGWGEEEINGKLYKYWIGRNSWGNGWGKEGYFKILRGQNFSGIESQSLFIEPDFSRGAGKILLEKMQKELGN

Row | SMILES | % Inhibition @ 10 uM [%]
1 | Cn1c(C(=O)NCC2CCCO2)cc2oc3ccccc3c21 (stereo not shown) | 2.8
2 | CC(=O)Nc1cc2nc3ccccc3nc2cc1NC(C)=O | 2.59
3 | CC1CCC(NS(=O)(=O)c2ccc3[nH]c4c(c3c2)CCCC4)CC1 (stereo not shown) | -2.5
4 | CCOc1cc(C2C3=C(CCCC3=O)N(C)C3=C2C(=O)CCC3)ccc1OC | -3.41
5 | Cc1ccc(C)c(OCC(=O)Nc2sc3c(c2C(N)=O)CCCC3)c1 | 3.8
6 | CC(=O)Nc1ccc2nc(O)nc(-c3ccccc3)c2c1 | 4.57
7 | CC(C)CC(C(=O)NCC#N)c1csc(-c2ccc(N3CCOCC3)cc2)n1 (stereo not shown) | -1.41
8 | CCOc1ccccc1N1CCN(C2CC(=O)N(c3ccccc3)C2=O)CC1 (stereo not shown) | -3.26
9 | O=C(c1ccc(Cl)cc1)N1CCN(C(=O)c2ccc(Cl)cc2)CC1 | -0.294
10 | COC(=O)c1cc2c(=O)n3cc(C)ccc3nc2n(CCCn2ccnc2)c1=N | -0.169
11 | COc1ccccc1N1CCN(S(C)(=O)=O)CC1 | -2.7
12 | CCn1c(C(=O)N2CCC(C(=O)NCCCN3CCc4ccccc4C3)CC2)cc2sccc21 | 0.137
13 | COc1ccc(C(=O)Nc2ccccc2C(=O)NC(C(=O)N2CCCCC2)C(C)C)cc1 (stereo not shown) | 9.14
14 | O=c1sc2ccccc2n1Cc1ccc(F)cc1 | -6.12
15 | CC(CNC(=O)C1CCCN(c2ncnc3c2sc2cccc(F)c23)C1)c1ccccc1 (stereo not shown) | 2.65
16 | COc1ccc(CNC(=O)C(C)Sc2ccc(C)cc2)cc1 (stereo not shown) | -4.15
17 | Cc1cc(C)c(-c2c(NC3CCN(Cc4ccccc4)CC3)c(=O)c2=O)cc1C | -8.89
18 | O=C(c1ccco1)C12CN3CN(CN(C3)C1)C2 | 4.17
19 | O=C(Nc1cccnc1)C1CC1c1ccccc1 (stereo not shown) | 1.57
20 | O=C(NCCC(c1ccccc1)c1ccccc1)c1cnc2ccccn2c1=O | 3.32
21 | N#Cc1cc2c(nc1SCCOC1CCCCO1)CCCC2 (stereo not shown) | 2.01
22 | CCN1C(=O)N/C(=C/c2cc(C)n(-c3ccc(N(C)C)cc3)c2C)C1=O | -7.34
23 | Cc1ccc(OCCOCCN2CCOCC2)cc1 | -2.6
24 | COc1ccc(N(C)C(=O)c2cccc(C(=O)N(C)c3ccc(OC)cc3)c2)cc1 | 5.05
25 | CC(/C(O)=C(\C#N)c1nc2ccccc2[nH]1)N1C(=O)c2ccccc2C1=O (stereo not shown) | -3.78
26 | CCc1ccc(C2CC(=O)N3CN(Cc4ccccc4)CSC3=C2C#N)cc1 (stereo not shown) | 39.2
27 | CCN(Cc1ccccc1)C(CNS(=O)(=O)c1ccccc1)c1ccccc1 (stereo not shown) | 1
28 | CSc1ccc(NC(=O)CC(C)=O)cc1 | 1.48
